Laboratory results: the supplement of paper PMC11417369
± gives the standard deviation of the averaged measurements. Some of the results follow.

System: PfAP2-LT AP2 domain (GST-tagged)
Test: gcPBM binding intensity (ln(normalized median fluorescence intensity)); higher = stronger DNA binding
Summary of the method: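 Binding intensity values are the highest Masliner-normalised natural-log median intensity among replicate spots of either probe orientation. The binding step lasted 1 h in 1× PBS with 1% milk, 0.2 mg/ml BSA, 0.5% salmon testes DNA and 0.03% Triton X-100, using GST-tagged P. falciparum DNA-binding domains expressed in E. coli on an Agilent 4 × 180k array of primer-extended double-stranded 36-bp intergenic genomic probes plus negative controls. Alexa488 anti-GST antibody and a 488 nm scan detected bound protein.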

Sequence | gcPBM binding intensity (ln)
TGAATAAAATATTATACACACATATGTATTTAACAT [CACACA_site4694] | 8.91 ± 0.35
ATCATTTAAACAATATGTACTCATTGTAGATATGGT [XGTACX_site5088] | 8.77 ± 0.36
AATGCGCATTTTTTTTTTTTTTTTTTTTTTTTTTTT [XGTACX_negctrl_site258] | 9.09 ± 0.085
ATATATATATATATGTGTACATATTAGTGATATAAT [XGTACX_site7161] | 9.35 ± 0.028
CGTTACACAAAAATATGTACATATATACATATATAT [XGTACX_site4631] | 8.92 ± 0.48
TATAAATATAAATACTGTACATTATATTATATAATA [XGTACX_site2480] | 8.53 ± 0.43
TATTCCCCCAAACACACACACACACCCACATACCAC [CACACA_site2304] | 10.5 ± 0.13
TAAAAATAATATTAATGTACATTACATATTAATATA [XGTACX_site1019] | 8.43 ± 0.46
TATACGTGTTTTATTTGTACTTAAGCAGGTAAGCAT [XGTACX_site193] | 8.62 ± 0.36
CTATATATTTTTTCTTAACACACATATATAAAATAA [CACACA_site9165] | 8.45 ± 0.35
TATATGTATCCATTATGTACATAATAGTAATATAAT [XGTACX_site4008] | 8.82 ± 0.38
TATATTTATTTTCTGTGTACACATATGTTGTGTATT [XGTACX_site7640] | 9.28 ± 0.49
AAAACCTAGTGCATTTGTACATATTTCAATTTTAAA [XGTACX_site4582] | 8.59 ± 0.49
TAAAAAATACAAGAGTGTACAAAATTTTTCTAAATG [XGTACX_site5334] | 8.8 ± 0.49
AATATAAATGTGATTACACACAACAGATTTAAATGG [CACACA_site4802] | 9.12 ± 0.45
TTATTTTTTAATTATATTCAAAATTAAAAAAAAAAA [XGTACX_negctrl_site226] | 7.79 ± 0.33
ATTAAAAAAAAAAAAAAAAAAAAAAAAAAAAAAAAA [CACACA_negctrl_site1060] | 8.02 ± 0.17
ATTGATAAATTAACTAGTACACATATAAATATATTA [XGTACX_site2325] | 8.52 ± 0.47
ATATACATATAGGATGCACACATAATTCAAATACAA [CACACA_site8120] | 9.3 ± 0.42
AACAATAATTTTGAATGTACATATAAATATTTTTAT [XGTACX_site5501] | 8.61 ± 0.38
TATAATGGTTCTGGTGTGCACCATGACAGAATCAAG | 8.82 ± 0.38
AAAAAAAAGAATAGCACACACACATATATAAATATA [CACACA_site630] | 9.73 ± 0.22

Sequence | gcPBM binding intensity (ln)
GTGAAAGGAAAAGTTGAACACACAAAGTAAACTATA [CACACA_site9178] | 9.2 ± 0.58
TCTTATAAAGGTAATTGTACATATTTATAATTTCTT [XGTACX_site4847] | 8.54 ± 0.47
AATAATATTTAATACGCACACAATAATAATATAAAA [CACACA_site1763] | 9.04 ± 0.46
CACACGCACGAACACACACACATATAAATATAAATA [CACACA_site6299] | 9.71 ± 0.44
ATATATTATTATACATGTACATATATAGATATATAT [XGTACX_site4358] | 8.9 ± 0.36
AGGTAGAAATTGTTAAAAAATCATACATATTATATA [CACACA_negctrl_site622] | 8.5 ± 0.47
TTTAAATACAGACATACACACATACACGCACATATA [CACACA_site6400] | 9.49 ± 0.37
TATATTTTTATTGAACGTACAAAAAGTCGAAAACAG [XGTACX_site3967] | 8.57 ± 0.39
ATAAATACTAAAAATGAAATATAGAAAATAGCAATA [CACACA_negctrl_site501] | 8.77 ± 0.45
GTTAATTCTATGAATTGTACTTAAATATAATTATAT [XGTACX_site2785] | 8.48 ± 0.35
ACAGTTAAAACAATAACACACAAAGAAAAAAAAAAA [CACACA_site737] | 8.99 ± 0.5
CAAAATAAAAATAACACACACATTTATATAAATACA [CACACA_site4790] | 9.32 ± 0.36
TATAATATATTATATACACACATTATAAAATACCCA [CACACA_site4858] | 9.01 ± 0.32
AAAAAAAAAAAAAAATGTACATATATATATATATTA [XGTACX_site7330] | 8.66 ± 0.42
CCTTGTCTTTTTTTTTTTTTTTTTTCTTCTTATTTT [GTGCAC_negctrl_site523] | 8.66 ± 0.52
ATAAAATAAGACAAAAAAAAAATATATATATATATA [TGCATGCA_negctrl_site314] | 9.69 ± 0.099
AGTAGATATAATATATGTACATATATATATATATAT [XGTACX_site7186] | 9.49 ± 0.42
AATAAATTTAAACACACACACACATATATATATATA [CACACA_site4621] | 10.1 ± 0.19
TATATACATAAACACACACACACATATATATATATA [CACACA_site8707] | 9.89 ± 0.2
TGCATATACTCAAGCACACATATATATATATATATA [CACACA_site4733] | 9.76 ± 0.13
AATTAATGGTTAAAGGTGCACAATACATATATTACA [GTGCAC_site9943] | 9.14 ± 0.41
ATATTAAACAAACACACACACATATATATATATATA [CACACA_site3383] | 10.2 ± 0.35
